# Experimental data reported in article PMC4336329 (PLoS ONE, 2015).
# Screen size: about 310,000 compounds; about 2,200 (0.71%) showed an effect of 50% or more. Effects have a minus sign here. The list shows a part of the results.
# Target: human ether-à-go-go-related gene (hERG) potassium channel (human, UniProt Q12809)
# Assay: primary screen, population patch clamp on CHO cells stably expressing hERG
# human ether-à-go-go-related gene (hERG) potassium channel, sequence (Q12809 whole entry, looked up): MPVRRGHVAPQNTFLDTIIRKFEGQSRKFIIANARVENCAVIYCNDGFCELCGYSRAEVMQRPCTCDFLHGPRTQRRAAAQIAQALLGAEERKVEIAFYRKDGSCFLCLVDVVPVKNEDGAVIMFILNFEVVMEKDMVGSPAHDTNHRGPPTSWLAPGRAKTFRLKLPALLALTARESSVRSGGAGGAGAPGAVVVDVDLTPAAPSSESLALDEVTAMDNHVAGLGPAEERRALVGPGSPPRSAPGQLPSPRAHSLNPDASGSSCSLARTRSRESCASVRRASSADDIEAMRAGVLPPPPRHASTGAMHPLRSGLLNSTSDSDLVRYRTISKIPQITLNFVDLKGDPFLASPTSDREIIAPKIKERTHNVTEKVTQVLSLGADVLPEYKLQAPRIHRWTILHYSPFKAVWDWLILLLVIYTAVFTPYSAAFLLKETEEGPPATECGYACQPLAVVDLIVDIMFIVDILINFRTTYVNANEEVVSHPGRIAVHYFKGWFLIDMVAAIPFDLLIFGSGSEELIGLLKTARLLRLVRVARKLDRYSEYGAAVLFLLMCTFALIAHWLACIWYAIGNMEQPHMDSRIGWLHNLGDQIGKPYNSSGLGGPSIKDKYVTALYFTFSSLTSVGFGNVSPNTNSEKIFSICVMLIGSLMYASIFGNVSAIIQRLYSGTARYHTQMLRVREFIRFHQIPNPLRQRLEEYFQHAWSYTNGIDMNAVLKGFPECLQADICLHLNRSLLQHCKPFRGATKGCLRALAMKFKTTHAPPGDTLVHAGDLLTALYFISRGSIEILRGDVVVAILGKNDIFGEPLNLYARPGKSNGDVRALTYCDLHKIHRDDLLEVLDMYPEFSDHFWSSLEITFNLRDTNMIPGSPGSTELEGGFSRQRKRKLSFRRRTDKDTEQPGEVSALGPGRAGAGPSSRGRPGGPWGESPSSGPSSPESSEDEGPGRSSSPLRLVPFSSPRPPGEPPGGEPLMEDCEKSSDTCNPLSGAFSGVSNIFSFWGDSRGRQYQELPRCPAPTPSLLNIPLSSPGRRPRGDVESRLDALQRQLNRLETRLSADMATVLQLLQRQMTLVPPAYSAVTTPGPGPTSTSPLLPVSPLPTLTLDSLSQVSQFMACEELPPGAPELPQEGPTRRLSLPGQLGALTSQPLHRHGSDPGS
row,SMILES,"hERG current change (%, negative = inhibition) at 1uM"
1,O=C(CSc1ccccc1)N1CCN(c2ccc(F)cc2)CC1,9.59%
2,CCOc1ccccc1NC(=O)c1ccccc1-c1ccccc1,5.88%
3,O=c1c2ccccc2[nH]c2ccccc12,17.9%
4,CS(=O)(=O)N(CC(=O)NCCSCc1c(F)cccc1Cl)c1cccc([N+](=O)[O-])c1,11.6%
5,O=C(c1ccc(Cl)cc1)N1CCCCC(Cl)C1=O (stereo not drawn),4.3%
6,COc1ccc(-c2nc3ccccc3n2OC(=O)N(C)C)cc1,6.61%
7,O=c1c2ccccc2nc(-c2ccccc2)n1-c1ccccc1O,17.1%
8,CCOc1ccc(C2=C(C=C(C#N)C#N)C(c3ccccc3)c3ccccc3O2)cc1 (stereo not drawn),16.8%
9,O=C(Cc1ccsc1)NCC(c1ccco1)N1CCCCC1 (stereo not drawn),-3.2%
10,O=C(NNC(=S)Nc1ccccc1)c1ccncc1,17.8%
11,CNC(=O)NNC(=O)c1nc(-c2ccccc2)c(C)o1,14.2%
12,COc1ccc(C2(c3ccc(OC)cc3)NC(=O)N(CC(=O)NC(C)C)C2=O)cc1,9.81%
13,O=S(=O)([O-])c1cc(O)c2c(O)c(N=Nc3cc(Cl)ccc3O)c(S(=O)(=O)[O-])cc2c1.[Na+],7.13%
14,Cc1cc(N/N=C2\CC(C)CC(C)(C)C2)nc2ccccc12 (stereo not drawn),11%
15,COc1cc(Nc2nc3ccccc3nc2NS(=O)(=O)c2ccc([N+](=O)[O-])cc2)cc(OC)c1OC,-2.15%
16,COc1ccc(C)cc1-n1nnnc1SCn1nnc2ccccc2c1=O,6.34%
17,CC(=O)NC(=S)Nc1ccc(NC(=O)COc2ccc(Cl)cc2)cc1,13.5%
18,CC(=O)c1c(O)cc(=O)n(-c2ccccc2)c1-c1cccc2ccccc12,20%
19,COc1ccccc1C1CC(=O)NC(SCC(=O)Nc2ccccc2)=C1C#N (stereo not drawn),5.2%
20,CC(C)C(=O)N1CCN(c2ccc(NC(=O)c3ccc4c(c3)OCCO4)cc2Cl)CC1,5.91%
21,COc1ccc(F)cc1CN1CCN(c2ncnc3scc(-c4ccccc4)c23)CC1,7.62%
22,O=C(NCCCCNC(=O)c1cccnc1Cl)c1cccnc1Cl,15.3%
23,CCN1C(=O)NC2=C(C(=O)c3ccccc32)C1c1ccccc1F (stereo not drawn),10.2%
24,COC(=O)c1cccnc1-n1c(=O)c2cccnc2n(Cc2cccc(OC)c2)c1=O,6.82%
